# The supplement of paper PMC7826260
# The list shows a part of the results. Each Rep nickase domain was tested in vitro on the same pool of single strands for 1 h at 37 °C with 3 µM enzyme; only the middle of the 90-letter strands is printed. Values are log2 of uncut reads against the no-enzyme pool; more negative means more cut, near 0 not cut, and no call is made. Because reads are shares of a total, they shift together; uncut strands gain when others are lost, and binding without cutting may add a little.
# Experiments:
# Test in all cases: uncleaved DNA left, log2 of reads against the no-enzyme library (log2 ratio); higher = less cleavage (more negative = more Rep cleavage of the k-mer); sequences stand for … in CTCGTCCG…ACCGGAGA
# [1] = system: T1, Rep nickase domain of Muscovy duck circovirus
# T1 sequence (Rep 1-111, printed without the tag): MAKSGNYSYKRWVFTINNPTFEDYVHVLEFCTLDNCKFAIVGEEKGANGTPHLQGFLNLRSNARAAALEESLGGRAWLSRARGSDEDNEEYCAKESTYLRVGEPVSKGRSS
# Description: (§1)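 A pool of 90-nt single-stranded DNAs with seven random bases just before the constant AC of the nick site (name = the seven bases) was cut by 3 µM recombinant His6-SUMO-tagged Rep nickase domain (300 nM DNA, 50 mM HEPES pH 8.0, 50 mM NaCl, 1 mM MnCl2, 1 h, 37 °C, three replicates). Uncut DNA was amplified and sequenced.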
# [2] = system: T2, Rep nickase domain of banana bunchy top virus
# T2 sequence (Rep 1-94, printed without the tag): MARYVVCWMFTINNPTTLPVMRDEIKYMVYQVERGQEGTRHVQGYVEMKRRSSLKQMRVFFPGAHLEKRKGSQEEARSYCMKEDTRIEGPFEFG
# Description: as §1
# [3] = system: T3, Rep nickase domain of cabbage leaf curl virus
# T3 sequence (Rep 1-116, printed without the tag): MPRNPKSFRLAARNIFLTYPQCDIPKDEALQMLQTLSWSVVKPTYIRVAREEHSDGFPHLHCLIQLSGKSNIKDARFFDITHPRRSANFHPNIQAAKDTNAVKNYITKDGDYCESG
# Description: as §1
# [4] = system: T4, Rep nickase domain of chickpea chlorotic dwarf virus
# T4 sequence (Rep 1-124, printed without the tag): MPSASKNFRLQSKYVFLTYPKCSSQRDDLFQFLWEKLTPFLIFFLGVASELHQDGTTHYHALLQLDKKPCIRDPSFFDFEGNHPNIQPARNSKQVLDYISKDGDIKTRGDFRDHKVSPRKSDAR
# Description: as §1
# [5] = system: T5, Rep nickase domain of faba bean necrotic yellows virus
# T5 sequence (Rep 1-98, printed without the tag): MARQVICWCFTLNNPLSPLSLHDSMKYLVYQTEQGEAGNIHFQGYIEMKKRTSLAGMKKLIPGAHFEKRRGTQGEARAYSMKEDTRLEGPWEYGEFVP
# Description: as §1
# [6] = system: T6, Rep nickase domain of maize striate mosaic virus
# T6 sequence (Rep 1-117, printed without the tag): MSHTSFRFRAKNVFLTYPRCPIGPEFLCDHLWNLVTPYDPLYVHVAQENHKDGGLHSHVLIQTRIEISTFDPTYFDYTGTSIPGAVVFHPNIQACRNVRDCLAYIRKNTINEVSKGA
# Description: as §1
# [7] = system: T7, Rep nickase domain of porcine circovirus 2
# T7 sequence (Rep 2-116, printed without the tag): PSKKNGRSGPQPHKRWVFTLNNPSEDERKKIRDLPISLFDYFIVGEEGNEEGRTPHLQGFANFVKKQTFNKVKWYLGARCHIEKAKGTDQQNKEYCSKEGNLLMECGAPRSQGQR
# Description: as §1
# [8] = system: T8, Rep nickase domain of tomato golden mosaic virus
# T8 sequence (Rep 1-124, printed without the tag): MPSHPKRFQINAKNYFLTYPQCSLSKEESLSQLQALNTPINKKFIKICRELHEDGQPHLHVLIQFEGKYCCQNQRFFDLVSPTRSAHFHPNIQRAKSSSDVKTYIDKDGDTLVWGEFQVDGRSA
# Description: as §1
# [9] = system: T9, Rep nickase domain of tomato yellow leaf curl virus
# T9 sequence (Rep 1-136, printed without the tag): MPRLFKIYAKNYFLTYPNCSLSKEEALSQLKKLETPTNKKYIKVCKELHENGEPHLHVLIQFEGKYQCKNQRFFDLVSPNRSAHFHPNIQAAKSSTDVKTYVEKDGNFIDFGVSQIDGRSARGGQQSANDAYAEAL
# Description: as §1
# [10] = system: T10, Rep nickase domain of wheat dwarf virus
# T10 sequence (Rep 1-137, printed without the tag): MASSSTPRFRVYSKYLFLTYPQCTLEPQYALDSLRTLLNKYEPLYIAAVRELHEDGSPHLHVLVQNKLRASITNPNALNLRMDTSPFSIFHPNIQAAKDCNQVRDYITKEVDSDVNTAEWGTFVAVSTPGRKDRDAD
# Description: as §1
Sequence,uncleaved DNA left (log2) [1],uncleaved DNA left (log2) [2],uncleaved DNA left (log2) [3],uncleaved DNA left (log2) [4],uncleaved DNA left (log2) [5],uncleaved DNA left (log2) [6],uncleaved DNA left (log2) [7],uncleaved DNA left (log2) [8],uncleaved DNA left (log2) [9],uncleaved DNA left (log2) [10]
ATTCAGA,-0.0468,0.00896,-0.166,-0.327,-0.0605,-0.991,0.0507,-0.0595,-0.0772,-0.127
CGGTTGA,0.00956,0.0662,0.194,0.518,0.0836,0.953,0.123,0.0261,0.179,0.225
GATGAAG,-0.0134,0.0414,-0.618,-0.383,0.188,-0.641,0.151,0.125,0.0503,0.041
GGCGAAA,0.077,0.176,0.369,1.04,0.00948,1.41,0.13,0.16,0.143,0.196
TCCCGCA,-0.239,-0.207,-0.4,-1.05,-0.148,-0.94,-0.227,-0.165,-0.234,-0.174
GCCGCTA,-0.0215,-0.0438,-0.00936,-0.0726,-0.0384,-0.0492,0.0512,0.056,0.0155,-0.0507
CCCTCCT,-0.251,-0.249,-0.0383,-1.83,-0.203,-0.0823,-1.04,-0.15,-0.168,-0.109
GGGAGGT,0.0846,0.0946,0.867,1.96,-0.104,2.29,0.217,0.0369,0.0304,0.0835
CAGCCTC,-0.167,-0.164,-0.101,-0.167,-0.0974,0.103,-0.243,-0.146,-0.185,-0.173
CGGCGGA,0.142,0.141,-0.142,0.358,0.0219,0.388,0.182,0.186,-0.0524,-0.101
TAGACCA,4.78e-05,0.167,0.137,-1.27,0.00732,0.505,-0.871,0.0744,0.131,0.0876
AAAGGCA,-0.0261,-0.0621,-0.0514,-0.0513,-0.0513,-0.328,-0.0105,0.00827,-0.0821,0.029
GCCTGGA,-0.0875,-0.126,0.00415,0.416,-0.071,0.128,0.025,-0.0537,-0.0471,-0.134
TAGCGCC,0.00556,-0.12,-0.13,-0.394,-0.0907,-0.551,-0.0133,-0.0611,-0.0953,-0.16
TTTGGAC,0.0449,0.0838,0.29,1.18,0.03,1.29,0.152,0.0237,0.0284,0.135
GTTGTTC,0.132,0.0723,0.456,0.687,0.0922,1.56,0.0766,0.0771,0.134,0.0989
GAGAACT,-0.0648,-0.16,0.418,-0.838,-0.208,1.59,-2.66,-0.0242,0.0427,0.149
TTACAGT,-0.0281,-0.0698,-0.378,-2.19,-0.014,-0.843,-0.114,-0.167,0.022,-0.08
CCGACTT,0.126,0.07,0.0332,0.378,-0.116,1.41,-0.0512,-0.00478,-0.0967,0.0237
GACTTCG,-0.0685,-0.0262,-0.844,-0.64,-0.1,-0.985,0.0993,-0.115,-0.0221,-0.0498
ATGTAGG,-0.118,0.0227,0.127,0.738,0.00343,0.245,0.13,0.0784,-0.142,0.0259
CGCGGGC,0.0464,-0.0164,0.0336,0.104,0.0539,-0.168,-0.0736,-0.0803,-0.152,-0.0326
TTGCGTA,0.14,0.162,-0.646,0.403,0.164,-0.625,0.168,0.0375,0.161,0.0129
TGAAGGC,0.0259,-0.00755,0.222,0.254,0.116,-0.356,0.13,0.0692,0.107,0.0773
TCTTTGG,-0.0818,-0.165,-0.0398,-0.104,-0.0961,-0.588,-0.0851,-0.0174,-0.0771,-0.11
TGGCTTG,-0.0699,-0.0866,-0.128,-0.217,-0.0731,0.168,0.0828,-0.0604,-0.0817,-0.225
GATAAAC,0.0151,0.066,0.222,0.506,-0.00297,0.628,0.0541,-0.045,0.054,-0.0304
AGCTCGT,0.0805,0.0173,-0.0799,0.0419,-0.0503,-0.335,-0.336,0.0142,0.0221,0.0982
AGGCCGC,0.043,-0.00493,0.0586,0.167,-0.00706,-0.0366,-0.0893,0.0576,-0.0594,0.0133
CGGGGGC,-0.00461,-0.0512,0.831,1.25,0.0152,2.02,0.262,0.101,-0.0253,0.0184
